Assay results from patent publication US10227332B2, “T-type calcium channel modulator and uses thereof” (UTI Limited Partnership, priority 2014, dated 2019).
At least one compound was matched to its structure with a doubt left.

Columns and labels:
[1] = test system: mice with partial sciatic nerve injury; experiment: Partial sciatic nerve injury (PNI)-induced neuropathic pain, mechanical hyperalgesia; type: in vivo, mouse; details: 30 mg/kg, i.p., 14 days after nerve injury, vs PNI+Control
From the text: (§1) During experiments, all efforts were made to minimize animal suffering according to the policies and recommendations of the International Association for the Study of Pain and all protocols used were approved by the Institutional Animal Care and Use Committee. For all experiments, either adult male C57BL/6J (wild-type) or CACNA1H knockout (Cav3.2 null) mice (20-25 g) purchased from Jackson Laboratories were used. There were a maximum of five mice per cage (30×20×15 cm) and access to food and water was unlimited. Temperature was kept at 23±1° C. on a 12 h light/dark cycle (lights on at 7:00 a.m.). Intraperitoneal (i.p.) injections of drugs were a constant volume of 10 ml/kg body weight. Intrathecal (i.t.) injections used volumes of 10 μl and were performed using the method described previously and carried out routinely in our laboratory. All drugs were dissolved in 1% or less DMSO, whereas control animals received PBS+1% DMSO. For each test, a different group of mice were used and only one experiment per mouse was performed.
Before surgery, mice were anaesthetised with isoflurane (5% induction, 2.5% maintenance). […] Mechanical hyperalgesia was then evaluated in a time-dependant manner.
Mechanical hyperalgesia responses were recorded immediately before the surgeries (baselines), 14 days after the surgeries (0) and at various time points (0.5, 1, 2, 3 h) after treatment. […]

[2] = test system: CACNA1H knockout (Cav3.2 null) mice, formalin-induced pain; experiment: Formalin test in Cav3.2 null mice; type: in vivo, mouse; details: 10 μg i.t., first and second phases
[3] = test system: wild-type mice, formalin-induced pain; experiment: Formalin test (acute nociceptive and inflammatory phases); type: in vivo, mouse; details: summary statement
From the text: as §1
Before experiments were performed, mice were left to acclimatize for at least 60 minutes. […] Following i.pl. injections of formalin, individual animals were placed immediately into observation chambers and monitored from 0-5 min (acute nociceptive phase) and 15-30 min (inflammatory phase).

hCB2 = hCB2 (Homo sapiens (Human), UniProt P34972); experiment: Radioligand competitive binding assay, CB2 receptor (NIMH PDSP); details: CB2 versus CB1
From the text: The compounds was screened using whole-cell voltage clamp techniques for their ability to mediate tonic block of transiently expressed hCav3.2 channels (FIG. 1). Next, radioligand binding assays were used to assess the affinities of these compounds for both CB1 and CB2 receptors (Table 1).
CB1 and CB2 radioligand binding data were obtained using National Institute of Mental Health (NIMH) Psychoactive Drug Screening Program (PDSP) resources as described earlier.

[4] = molecular target: human Cav3.2 (T-type) calcium channel (Homo sapiens (Human), UniProt O95180); experiment: Whole-cell voltage clamp on transiently expressed hCav3.2 channels in tsA-201 cells; type: cell-based; details: compared with compound 9
Sequence of human Cav3.2 (T-type) calcium channel (O95180 whole entry): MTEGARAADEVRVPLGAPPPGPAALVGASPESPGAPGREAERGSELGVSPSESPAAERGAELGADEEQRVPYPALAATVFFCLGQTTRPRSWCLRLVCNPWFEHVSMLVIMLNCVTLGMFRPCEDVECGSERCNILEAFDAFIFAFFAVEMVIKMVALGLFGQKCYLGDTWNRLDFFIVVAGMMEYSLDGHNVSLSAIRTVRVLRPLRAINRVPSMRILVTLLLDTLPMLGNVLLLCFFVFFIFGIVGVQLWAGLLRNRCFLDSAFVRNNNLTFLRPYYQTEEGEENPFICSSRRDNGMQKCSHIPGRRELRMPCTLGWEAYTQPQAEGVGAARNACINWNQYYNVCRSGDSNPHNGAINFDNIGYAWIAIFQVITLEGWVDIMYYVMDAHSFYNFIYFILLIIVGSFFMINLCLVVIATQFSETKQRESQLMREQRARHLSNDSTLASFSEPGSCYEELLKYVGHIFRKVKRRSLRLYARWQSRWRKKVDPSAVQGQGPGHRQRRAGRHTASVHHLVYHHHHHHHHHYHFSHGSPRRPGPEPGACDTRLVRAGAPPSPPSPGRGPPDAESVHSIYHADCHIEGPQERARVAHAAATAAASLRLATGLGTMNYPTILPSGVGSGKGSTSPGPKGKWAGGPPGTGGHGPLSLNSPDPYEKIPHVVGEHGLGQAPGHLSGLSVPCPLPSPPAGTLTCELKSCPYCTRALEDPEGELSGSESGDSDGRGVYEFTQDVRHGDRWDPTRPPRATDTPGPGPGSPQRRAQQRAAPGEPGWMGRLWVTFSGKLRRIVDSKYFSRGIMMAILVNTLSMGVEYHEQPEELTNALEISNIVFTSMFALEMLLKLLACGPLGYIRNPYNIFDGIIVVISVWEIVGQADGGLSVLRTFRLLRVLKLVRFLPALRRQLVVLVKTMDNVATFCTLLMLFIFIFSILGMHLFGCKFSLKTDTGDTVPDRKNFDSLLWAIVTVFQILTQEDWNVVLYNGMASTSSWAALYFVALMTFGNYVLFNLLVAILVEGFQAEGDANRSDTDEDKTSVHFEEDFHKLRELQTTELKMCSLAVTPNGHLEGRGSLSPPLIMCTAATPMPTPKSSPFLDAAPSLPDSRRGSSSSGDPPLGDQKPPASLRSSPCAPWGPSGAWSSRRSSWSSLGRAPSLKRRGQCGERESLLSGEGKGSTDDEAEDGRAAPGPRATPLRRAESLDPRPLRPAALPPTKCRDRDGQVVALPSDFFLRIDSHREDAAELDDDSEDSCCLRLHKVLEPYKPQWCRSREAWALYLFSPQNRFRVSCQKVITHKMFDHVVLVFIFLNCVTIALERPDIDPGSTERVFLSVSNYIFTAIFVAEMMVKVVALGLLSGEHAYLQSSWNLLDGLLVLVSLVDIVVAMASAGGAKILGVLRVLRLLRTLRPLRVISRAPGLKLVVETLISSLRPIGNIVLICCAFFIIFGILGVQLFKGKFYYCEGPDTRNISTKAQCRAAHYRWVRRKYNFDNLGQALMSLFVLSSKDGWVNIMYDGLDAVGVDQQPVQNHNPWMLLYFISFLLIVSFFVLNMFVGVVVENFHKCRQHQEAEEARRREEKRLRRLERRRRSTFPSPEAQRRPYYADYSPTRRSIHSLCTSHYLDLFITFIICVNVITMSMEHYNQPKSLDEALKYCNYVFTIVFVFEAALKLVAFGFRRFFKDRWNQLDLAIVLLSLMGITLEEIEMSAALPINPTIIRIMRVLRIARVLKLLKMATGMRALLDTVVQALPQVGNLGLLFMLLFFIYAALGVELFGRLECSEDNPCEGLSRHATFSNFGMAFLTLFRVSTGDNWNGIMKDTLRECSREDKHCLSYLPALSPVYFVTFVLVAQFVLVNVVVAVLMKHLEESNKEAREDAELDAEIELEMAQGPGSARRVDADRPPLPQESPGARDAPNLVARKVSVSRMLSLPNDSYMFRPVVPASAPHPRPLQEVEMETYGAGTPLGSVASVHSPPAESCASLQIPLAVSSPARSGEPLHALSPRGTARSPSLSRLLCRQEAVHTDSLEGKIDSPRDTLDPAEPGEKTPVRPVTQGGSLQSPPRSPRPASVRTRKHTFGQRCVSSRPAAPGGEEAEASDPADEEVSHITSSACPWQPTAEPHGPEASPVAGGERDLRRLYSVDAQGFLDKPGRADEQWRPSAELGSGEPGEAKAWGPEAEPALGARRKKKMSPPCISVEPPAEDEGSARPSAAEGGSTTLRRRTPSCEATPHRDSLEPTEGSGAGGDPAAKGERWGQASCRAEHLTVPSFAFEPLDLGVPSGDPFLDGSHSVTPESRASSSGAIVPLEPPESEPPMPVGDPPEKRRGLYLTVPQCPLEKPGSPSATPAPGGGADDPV

CCCCCn1c2ccccc2c2cc(C(=O)NCC3CCN(CC(=O)NC(C)(C)C)CC3)ccc21 [Compound 9, N-((1-(2-(tert-butylamino)-2-oxoethyl)piperidin-4-yl)methyl)-9-pentyl-9H-carbazole-3-carboxamide]
mechanical hyperalgesia / tactile allodynia after sciatic nerve injury [1]: efficacious
mechanical hyperalgesia / tactile allodynia after sciatic nerve injury ([1]; listed as compound 9): significantly attenuated
effect on formalin pain response in Cav3.2 null mice [2]: substantially ineffective
effect on formalin pain response in Cav3.2 null mice ([2]; listed as compound 9): substantially insensitive
analgesia in mouse models of acute inflammatory pain [3]: efficacious

CCCCCn1c2ccccc2c2cc(C(=O)N3CCN(CC(=O)NC(C)(C)C)CC3)ccc21 [Compound 10, N-tert-butyl-2-[4-(9-pentyl-9H-carbazole-3-carbonyl)piperazin-1-yl]acetamide]
affinity for CB2 receptor lower than for CB1 (hCB2): approximately 100 fold

CCCn1c2ccccc2c2cc(C(=O)NCC3CCN(CC(=O)NC(C)(C)C)CC3)ccc21 [Compound 13, N-((1-(2-(tert-butylamino)-2-oxoethyl)piperidin-4-yl)methyl)-9-propyl-9H-carbazole-3-carboxamide]
effect of structural change on Cav3.2 block [4]: negatively impacted

CCCCn1c2ccccc2c2cc(C(=O)NCC3CCN(CC(=O)NC(C)(C)C)CC3)ccc21 [Compound 16, N-((1-(2-(tert-butylamino)-2-oxoethyl)piperidin-4-yl)methyl)-9-butyl-9H-carbazole-3-carboxamide]
effect of structural change on Cav3.2 block [4]: negatively impacted

CCCCCn1c2ccccc2c2cc(C(=O)NCC3CCN(CC(=O)NC(C)(C)C)C3)ccc21 (stereo not shown) [Compound 19, N-((1-(2-(tert-butylamino)-2-oxoethyl)pyrrolidin-4-yl)methyl)-9-pentyl-9H-carbazole-3-carboxamide]
effect of structural change on Cav3.2 block [4]: slight negative effect

CCCCCn1c2ccccc2c2cc(C(=O)NCC3CCN(CCC(C)(C)C)CC3)ccc21 [Compound 20, N-{[1-(3,3-dimethylbutyl)piperidin-4-yl]methyl}-9-pentyl-9H-carbazole-3-carboxamide]
effect of structural change on Cav3.2 block [4]: significantly decreased
